Measurements as given in patent publication US20050142080A1, “Cosmetic or dermatological light protection formulation with a benzoxazole derivative” (Beiersdorf AG, priority 2001, published 2005).

Conditions: K10T tensiometer from Krüss with a ring against air

Compared with Pentaerythrityl Tetraisostearate, `CCCCOC(=O)CCCCC(=O)OCCCC` [Dibutyl Adipate] is lower in “σ [mN/m] at 25° C. (surface tension)” value: 30.8 mN/m for the first, 22.7 mN/m for the second.

First: CCCCC(CC)COC(=O)c1ccc2cc(C(=O)OCC(CC)CCCC)ccc2c1 (stereo not shown) [Diethylhexyl 2,6-Naphthalate]
Second: CCCCC(CC)COC(=O)C(C#N)=C(c1ccccc1)c1ccccc1 (stereo not shown) [Octocrylene, 2-ethylhexyl 2-cyano-3,3-diphenylacrylate]
The “σ [mN/m] at 25° C. (surface tension)” value of the first is lower: 32.6 mN/m for the first, 35.7 mN/m for the second.

First: Tridecyl Trimellitate
Second: CCCCCCCCCCCCCCCCCCOC(=O)CCCCCC [Stearyl Heptanoate]
The “σ [mN/m] at 25° C. (surface tension)” value of the first is lower: 25.2 mN/m for the first, 28.7 mN/m for the second.

First: CC1CC(OC(=O)c2ccccc2O)CC(C)(C)C1 (stereo not shown) [Homosalate, homomenthyl salicylate]
Second: CCCCC(CC)COC(=O)C=Cc1ccc(OC)cc1 (stereo not shown) [Ethylhexyl Methoxycinnamate, 2-ethylhexyl 4-methoxycinnamate]
The “σ [mN/m] at 25° C. (surface tension)” value of the first is higher: 33.2 mN/m for the first, 32.4 mN/m for the second.

Going from `CCCCCCCCCCCCCCCCCC(=O)OC(C)C` [Isopropyl Stearate] to `COc1ccc(C=CC(=O)OCCC(C)C)cc1` [Isoamyl-p-Methoxycinnamate, isopentyl 4-methoxycinnamate], the “σ [mN/m] at 25° C. (surface tension)” value rises from 26.3 mN/m to 34.2 mN/m.

Compared with `CCCCC(CC)COC(=O)c1ccccc1O` (stereo not shown) [Ethylhexyl Salicylate, 2-ethylhexyl 2-hydroxybenzoate], Octyldodecyl Myristate is lower in “σ [mN/m] at 25° C. (surface tension)” value: 32.2 mN/m for the first, 29.8 mN/m for the second.

For `CCCCN(CCC(=O)OCC)C(C)=O` [Ethyl Butylacetylaminopropionate, ethyl 3-(N-n-butyl-N-acetylamino)propionate], the “σ [mN/m] at 25° C. (surface tension)” value was 27.0 mN/m.
